No constants are given. Whether binding was seen depends on the method and setting. Binding seen in cells or lysates may run through a third protein. Some results given as binding are weak or reduced against the parent protein; the word gives no strength. For some assays here: Tags and fused reporters may be left off the sequences shown.
How the values were obtained:
[1] = molecular target: c-Jun activation domain-binding protein-1 (Jab1/CSN5), endogenous in mouse brain (mouse (endogenous in mouse brain)) (UniProt O35864); experiment: co-IP; WT and MsrA KO mouse brain extracts (500 µg protein), IP with anti-Jab1 antibody; Western blot with anti-Cul-1
[2] = molecular target: Cyclin-dependent kinase inhibitor 1B (P27), endogenous in mouse brain (mouse (endogenous in mouse brain)) (UniProt P46414); experiment: co-IP; WT mouse brain extract (500 µg protein), IP with anti-P27 antibody; Western blot with anti-Jab1
[3] = molecular target: Cyclin-dependent kinase inhibitor 1B (P27), endogenous in mouse brain (mouse (endogenous in mouse brain)) (UniProt P46414); experiment: co-IP; MsrA KO mouse brain extract (500 µg protein), IP with anti-P27 antibody; Western blot with anti-Jab1
[4] = molecular target: T1, Recombinant glutathione-S-transferase-MsrA (GST-MsrA) fused protein, bovine MsrA (bovine) (UniProt P54149); experiment: pull-down; Sepharose GST-MsrA or Sepharose-GST resin incubated with MsrA KO mouse brain supernatant (20 µg protein), 2 h at room temperature then overnight at 4 °C, washed with PBS; Western blot with anti-Jab1; only the target purified
T1 sequence: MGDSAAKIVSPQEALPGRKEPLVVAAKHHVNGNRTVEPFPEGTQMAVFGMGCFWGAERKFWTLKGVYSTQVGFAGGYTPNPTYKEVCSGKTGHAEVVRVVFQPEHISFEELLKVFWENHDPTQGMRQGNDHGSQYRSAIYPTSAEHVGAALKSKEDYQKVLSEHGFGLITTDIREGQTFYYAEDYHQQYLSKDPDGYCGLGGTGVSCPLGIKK

By UniProt entry, the sequences of proteins in these tests, tags left out. Where a name states a change or a piece, a line headed by the entry shows the natural chain unless it says otherwise.
UniProt O35864: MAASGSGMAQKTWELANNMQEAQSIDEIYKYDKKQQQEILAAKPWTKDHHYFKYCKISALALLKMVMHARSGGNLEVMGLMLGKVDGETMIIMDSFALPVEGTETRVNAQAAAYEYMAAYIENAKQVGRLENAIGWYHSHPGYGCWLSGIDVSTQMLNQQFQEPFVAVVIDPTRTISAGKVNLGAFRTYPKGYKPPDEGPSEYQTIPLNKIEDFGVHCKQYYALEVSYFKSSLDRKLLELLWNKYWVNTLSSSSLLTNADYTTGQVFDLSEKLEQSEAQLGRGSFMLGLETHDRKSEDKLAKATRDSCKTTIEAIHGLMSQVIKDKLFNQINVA
UniProt P46414: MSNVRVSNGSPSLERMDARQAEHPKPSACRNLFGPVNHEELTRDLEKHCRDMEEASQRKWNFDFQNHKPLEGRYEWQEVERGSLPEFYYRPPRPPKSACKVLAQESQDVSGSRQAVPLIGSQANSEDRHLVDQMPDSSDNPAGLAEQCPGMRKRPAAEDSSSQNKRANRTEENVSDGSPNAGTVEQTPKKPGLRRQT
UniProt Q9WTX6: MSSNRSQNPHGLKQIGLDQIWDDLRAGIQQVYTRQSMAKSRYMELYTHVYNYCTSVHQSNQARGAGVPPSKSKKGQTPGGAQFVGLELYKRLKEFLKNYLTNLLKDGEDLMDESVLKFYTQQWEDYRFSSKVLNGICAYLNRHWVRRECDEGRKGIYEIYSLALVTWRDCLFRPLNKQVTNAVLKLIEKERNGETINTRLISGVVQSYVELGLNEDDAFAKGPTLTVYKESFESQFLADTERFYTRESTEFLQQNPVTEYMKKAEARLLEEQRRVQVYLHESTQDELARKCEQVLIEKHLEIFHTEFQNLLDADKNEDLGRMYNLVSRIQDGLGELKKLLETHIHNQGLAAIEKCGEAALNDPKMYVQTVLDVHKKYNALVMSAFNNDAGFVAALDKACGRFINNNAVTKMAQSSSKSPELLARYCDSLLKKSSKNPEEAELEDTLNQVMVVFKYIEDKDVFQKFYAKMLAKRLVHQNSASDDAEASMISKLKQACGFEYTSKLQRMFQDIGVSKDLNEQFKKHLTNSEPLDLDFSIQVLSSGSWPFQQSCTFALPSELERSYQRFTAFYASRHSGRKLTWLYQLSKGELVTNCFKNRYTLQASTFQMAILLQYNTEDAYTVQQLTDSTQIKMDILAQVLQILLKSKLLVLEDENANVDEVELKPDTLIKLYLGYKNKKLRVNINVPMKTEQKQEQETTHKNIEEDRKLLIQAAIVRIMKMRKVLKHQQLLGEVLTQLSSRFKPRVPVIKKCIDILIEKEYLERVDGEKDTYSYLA

[5] = molecular target: T2, Methionine sulfoxide reductase A (MsrA), endogenous in mouse brain (mouse (endogenous in mouse brain)) (UniProt Q9D6Y7); experiment: co-IP; WT (and MsrA KO as control) mouse brain supernatants, IP with anti-MsrA antibody and protein-G Sepharose, 2 h room temperature then overnight 4 °C, PBS washes; Western blot with anti-Jab1
T2 sequence: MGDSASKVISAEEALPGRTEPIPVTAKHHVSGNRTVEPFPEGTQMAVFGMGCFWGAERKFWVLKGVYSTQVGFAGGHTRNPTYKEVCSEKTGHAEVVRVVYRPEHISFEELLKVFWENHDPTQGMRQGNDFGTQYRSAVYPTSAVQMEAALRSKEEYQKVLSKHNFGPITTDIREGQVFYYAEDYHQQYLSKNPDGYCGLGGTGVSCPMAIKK

Row | Substance | binding [1] | binding [2] | binding [3] | binding [4] | binding [5]
1 | Neddylated Cullin-1 (100-kDa neddylated Cul-1), endogenous in mouse brain (from UniProt Q9WTX6 1-776; P29595 1-76) | binds |  |  |  | 
2 | c-Jun activation domain-binding protein-1 (Jab1/CSN5), endogenous in mouse brain (from UniProt O35864 1-334) |  | binds | no binding (condition: brain extract of MsrA KO mice) | binds | binds

Source: article PMC7278660
